Laboratory results as given in publication PMC12184620.
Results are given in words; binding and its absence hold for the method and conditions named. In cells and extracts the contact can be indirect. Some results given as binding are weak or reduced against the parent protein; the word gives no strength. Tags and fused reporters may be left off the sequences shown.

T1: HA-GADD45A (goat growth arrest and DNA damage protein 45A) (goat)
T1 sequence: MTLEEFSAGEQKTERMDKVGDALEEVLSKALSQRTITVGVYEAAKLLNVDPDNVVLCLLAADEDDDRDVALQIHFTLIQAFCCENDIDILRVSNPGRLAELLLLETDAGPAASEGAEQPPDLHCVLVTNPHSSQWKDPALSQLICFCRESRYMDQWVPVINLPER

T2: HA-IKKβ (UniProt O14920)
T2 sequence: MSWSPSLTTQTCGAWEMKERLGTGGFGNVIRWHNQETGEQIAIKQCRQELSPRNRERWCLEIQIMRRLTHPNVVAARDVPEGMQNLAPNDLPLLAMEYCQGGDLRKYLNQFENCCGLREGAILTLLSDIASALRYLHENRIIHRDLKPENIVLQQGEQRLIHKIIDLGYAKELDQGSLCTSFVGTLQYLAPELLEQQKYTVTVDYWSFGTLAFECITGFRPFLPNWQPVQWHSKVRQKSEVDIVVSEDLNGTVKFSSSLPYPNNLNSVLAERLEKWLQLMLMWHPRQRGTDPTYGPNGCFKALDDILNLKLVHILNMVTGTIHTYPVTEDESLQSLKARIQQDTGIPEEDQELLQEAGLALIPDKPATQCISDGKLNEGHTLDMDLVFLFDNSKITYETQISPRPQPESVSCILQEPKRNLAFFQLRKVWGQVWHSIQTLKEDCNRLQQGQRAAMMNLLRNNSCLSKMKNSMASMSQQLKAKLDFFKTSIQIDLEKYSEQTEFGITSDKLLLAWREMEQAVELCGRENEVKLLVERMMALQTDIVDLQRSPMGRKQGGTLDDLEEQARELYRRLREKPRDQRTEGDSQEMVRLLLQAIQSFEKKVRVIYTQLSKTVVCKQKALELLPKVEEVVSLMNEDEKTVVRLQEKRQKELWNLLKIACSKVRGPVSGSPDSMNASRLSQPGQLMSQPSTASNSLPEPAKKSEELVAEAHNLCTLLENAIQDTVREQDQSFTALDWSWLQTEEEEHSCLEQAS

T3: HA-IKKα (UniProt O15111)
T3 sequence: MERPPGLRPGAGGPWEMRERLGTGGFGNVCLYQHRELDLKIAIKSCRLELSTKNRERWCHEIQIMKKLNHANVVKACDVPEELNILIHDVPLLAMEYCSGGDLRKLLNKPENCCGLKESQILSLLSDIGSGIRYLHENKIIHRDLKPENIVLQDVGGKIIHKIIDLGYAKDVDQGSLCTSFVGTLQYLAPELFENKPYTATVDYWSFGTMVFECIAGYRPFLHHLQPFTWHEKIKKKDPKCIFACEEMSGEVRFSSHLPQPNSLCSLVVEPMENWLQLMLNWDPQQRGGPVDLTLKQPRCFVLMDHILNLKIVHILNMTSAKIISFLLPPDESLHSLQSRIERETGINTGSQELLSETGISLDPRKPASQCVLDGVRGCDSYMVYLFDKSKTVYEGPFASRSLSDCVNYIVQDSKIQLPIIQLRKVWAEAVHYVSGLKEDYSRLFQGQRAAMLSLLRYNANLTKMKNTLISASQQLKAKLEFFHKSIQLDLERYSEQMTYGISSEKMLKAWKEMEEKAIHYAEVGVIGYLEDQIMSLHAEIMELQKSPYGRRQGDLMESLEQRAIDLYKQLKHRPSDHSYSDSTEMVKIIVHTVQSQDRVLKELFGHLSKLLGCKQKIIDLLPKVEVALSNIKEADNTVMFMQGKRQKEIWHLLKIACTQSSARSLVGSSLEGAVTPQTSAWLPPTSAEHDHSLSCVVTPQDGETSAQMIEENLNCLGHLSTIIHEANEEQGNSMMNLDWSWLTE

T4: HA-IKKε (UniProt Q14164)
T4 sequence: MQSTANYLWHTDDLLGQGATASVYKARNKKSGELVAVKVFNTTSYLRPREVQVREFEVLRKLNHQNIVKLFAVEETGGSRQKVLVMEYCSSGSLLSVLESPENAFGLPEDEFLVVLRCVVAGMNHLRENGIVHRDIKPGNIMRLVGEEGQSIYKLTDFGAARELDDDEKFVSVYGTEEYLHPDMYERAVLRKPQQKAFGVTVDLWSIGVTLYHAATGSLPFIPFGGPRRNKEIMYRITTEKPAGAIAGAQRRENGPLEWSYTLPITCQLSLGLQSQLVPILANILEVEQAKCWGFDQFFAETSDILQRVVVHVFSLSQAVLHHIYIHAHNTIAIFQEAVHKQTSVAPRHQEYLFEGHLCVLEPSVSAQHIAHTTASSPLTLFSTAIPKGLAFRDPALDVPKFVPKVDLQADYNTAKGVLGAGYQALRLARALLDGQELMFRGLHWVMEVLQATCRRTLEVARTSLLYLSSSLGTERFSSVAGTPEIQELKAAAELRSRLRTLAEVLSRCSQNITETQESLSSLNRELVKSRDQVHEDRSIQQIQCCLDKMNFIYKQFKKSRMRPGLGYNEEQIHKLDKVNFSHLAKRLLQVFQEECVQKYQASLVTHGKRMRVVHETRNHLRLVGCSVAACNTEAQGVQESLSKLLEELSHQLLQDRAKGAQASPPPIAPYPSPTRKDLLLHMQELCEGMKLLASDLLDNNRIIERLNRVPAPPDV

T5: HA-TBK1 (TANK-binding kinase 1) (UniProt Q9UHD2)
T5 sequence: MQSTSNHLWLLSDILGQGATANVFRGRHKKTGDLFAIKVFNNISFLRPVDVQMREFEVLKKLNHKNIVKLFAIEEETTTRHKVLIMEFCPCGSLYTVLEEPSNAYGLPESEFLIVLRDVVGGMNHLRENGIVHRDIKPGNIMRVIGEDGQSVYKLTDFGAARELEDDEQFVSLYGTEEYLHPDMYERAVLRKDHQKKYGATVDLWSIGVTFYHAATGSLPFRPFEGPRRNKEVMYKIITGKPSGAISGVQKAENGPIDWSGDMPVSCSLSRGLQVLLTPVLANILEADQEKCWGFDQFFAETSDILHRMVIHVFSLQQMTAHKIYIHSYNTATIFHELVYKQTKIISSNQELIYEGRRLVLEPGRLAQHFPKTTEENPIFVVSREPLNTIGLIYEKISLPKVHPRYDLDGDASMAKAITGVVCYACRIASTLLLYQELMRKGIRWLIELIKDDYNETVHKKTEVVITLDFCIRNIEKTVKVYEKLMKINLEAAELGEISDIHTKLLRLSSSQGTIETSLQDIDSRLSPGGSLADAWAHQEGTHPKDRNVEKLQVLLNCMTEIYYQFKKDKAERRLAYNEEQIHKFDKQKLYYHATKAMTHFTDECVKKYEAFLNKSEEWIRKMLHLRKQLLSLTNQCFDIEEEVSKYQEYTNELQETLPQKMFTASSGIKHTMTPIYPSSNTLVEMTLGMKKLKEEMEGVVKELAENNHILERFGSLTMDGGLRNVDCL

B1: Flag-TBK1 (TANK-binding kinase 1) (enzyme, UniProt Q9UHD2 1-729)
chain: T5 sequence
B2: Myc-GADD45A (goat growth arrest and DNA damage protein 45A) (protein, UniProt A0A452G3C0 1-165)
chain: T1 sequence

Assays:
Test in all cases: co-IP
[1] = biological target: T1, HA-GADD45A (goat growth arrest and DNA damage protein 45A) (goat)
HA-IKKβ = biological target: T2, HA-IKKβ
HA-IKKα = biological target: T3, HA-IKKα
HA-IKKε = biological target: T4, HA-IKKε
[2] = biological target: T5, HA-TBK1 (TANK-binding kinase 1)

Row | Binder | binding [1] | binding (HA-IKKβ) | binding (HA-IKKα) | binding (HA-IKKε) | binding [2]
1 | B1 | binds | – | – | – | –
2 | B2 | – | no binding | no binding | no binding | binds
